In PMC9911399, “Two distinct binding modes provide the RNA-binding protein RbFox with extraordinary sequence specificity”:
Positions count from the first letter of the chain named. The list shows a part of the results.

T1: RBFOX1 RRM (Homo sapiens, UniProt Q9NWB1 109-208)
T1 sequence: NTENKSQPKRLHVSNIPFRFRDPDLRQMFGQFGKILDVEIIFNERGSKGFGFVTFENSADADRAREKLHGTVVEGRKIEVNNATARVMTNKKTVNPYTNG

B1: UUCAUGG (DNA:RNA)
RNA: GGGAGACCGGAAUUCAGAUUGUCCUUCAUGGUUAAAUCCCGUCGUAGCCACCA
DNA 1: CAATCTGAATTCCGGTCTCCC
DNA 2: TGGTGGCTACGACGGGATT
B2: UGGCGGC (DNA:RNA)
RNA: B1 RNA with U26G, C27G, A28C, U29G, G31C
DNA 1: CAATCTGAATTCCGGTCTCCC
DNA 2: TGGTGGCTACGACGGGATT
B3: UCAUCAG (DNA:RNA)
RNA: B1 RNA with U26C, C27A, A28U, U29C, G30A
DNA 1: CAATCTGAATTCCGGTCTCCC
DNA 2: TGGTGGCTACGACGGGATT
B4: ACUCGAG (DNA:RNA)
RNA: B1 RNA with U25A, U26C, C27U, A28C, U29G, G30A
DNA 1: CAATCTGAATTCCGGTCTCCC
DNA 2: TGGTGGCTACGACGGGATT
B5: AAGGUGA (DNA:RNA)
RNA: B1 RNA with U25A, U26A, C27G, A28G, G31A
DNA 1: CAATCTGAATTCCGGTCTCCC
DNA 2: TGGTGGCTACGACGGGATT
B6: CCAUACU (DNA:RNA)
RNA: GGGAGACCGGAAUUCAGAUUGUCCCCAUACUUUAAAUCCCGUCGUAGCCACCA
DNA 1: CAATCTGAATTCCGGTCTCCC
DNA 2: TGGTGGCTACGACGGGATT
B7: GCCCCAA (DNA:RNA)
RNA: B6 RNA with C25G, A27C, U28C, A29C, C30A, U31A
DNA 1: CAATCTGAATTCCGGTCTCCC
DNA 2: TGGTGGCTACGACGGGATT
B8: CGCCCCA (DNA:RNA)
RNA: B6 RNA with C26G, A27C, U28C, A29C, U31A
DNA 1: CAATCTGAATTCCGGTCTCCC
DNA 2: TGGTGGCTACGACGGGATT
B9: CGCUUGA (DNA:RNA)
RNA: B1 RNA with U25C, U26G, A28U, G31A
DNA 1: CAATCTGAATTCCGGTCTCCC
DNA 2: TGGTGGCTACGACGGGATT
B10: UUAACAC (DNA:RNA)
RNA: B1 RNA with C27A, U29C, G30A, G31C
DNA 1: CAATCTGAATTCCGGTCTCCC
DNA 2: TGGTGGCTACGACGGGATT
B11: CAUACUU (DNA:RNA)
RNA: B6 RNA with C26A, A27U, U28A, A29C, C30U
DNA 1: CAATCTGAATTCCGGTCTCCC
DNA 2: TGGTGGCTACGACGGGATT
B12: UAGUAGA (DNA:RNA)
RNA: B6 RNA with C25U, C26A, A27G, C30G, U31A
DNA 1: CAATCTGAATTCCGGTCTCCC
DNA 2: TGGTGGCTACGACGGGATT
B13: AGUCCUU (DNA:RNA)
RNA: B6 RNA with C25A, C26G, A27U, U28C, A29C, C30U
DNA 1: CAATCTGAATTCCGGTCTCCC
DNA 2: TGGTGGCTACGACGGGATT
B14: CGGGGUA (DNA:RNA)
RNA: B6 RNA with C26G, A27G, U28G, A29G, C30U, U31A
DNA 1: CAATCTGAATTCCGGTCTCCC
DNA 2: TGGTGGCTACGACGGGATT
B15: GAACCCG (DNA:RNA)
RNA: B6 RNA with C25G, C26A, U28C, A29C, U31G
DNA 1: CAATCTGAATTCCGGTCTCCC
DNA 2: TGGTGGCTACGACGGGATT
B16: ACGCGCU (DNA:RNA)
RNA: B6 RNA with C25A, A27G, U28C, A29G
DNA 1: CAATCTGAATTCCGGTCTCCC
DNA 2: TGGTGGCTACGACGGGATT
B17: GUACCCC (DNA:RNA)
RNA: B6 RNA with C25G, C26U, U28C, A29C, U31C
DNA 1: CAATCTGAATTCCGGTCTCCC
DNA 2: TGGTGGCTACGACGGGATT
B18: UCGACGG (DNA:RNA)
RNA: B1 RNA with U26C, C27G, U29C
DNA 1: CAATCTGAATTCCGGTCTCCC
DNA 2: TGGTGGCTACGACGGGATT
B19: UGAACUA (DNA:RNA)
RNA: B1 RNA with U26G, C27A, U29C, G30U, G31A
DNA 1: CAATCTGAATTCCGGTCTCCC
DNA 2: TGGTGGCTACGACGGGATT
B20: ACGGCUA (DNA:RNA)
RNA: B6 RNA with C25A, A27G, U28G, A29C, C30U, U31A
DNA 1: CAATCTGAATTCCGGTCTCCC
DNA 2: TGGTGGCTACGACGGGATT
B21: AAGCCGG (DNA:RNA)
RNA: B1 RNA with U25A, U26A, C27G, A28C, U29C
DNA 1: CAATCTGAATTCCGGTCTCCC
DNA 2: TGGTGGCTACGACGGGATT
B22: GAUCGCG (DNA:RNA)
RNA: B6 RNA with C25G, C26A, A27U, U28C, A29G, U31G
DNA 1: CAATCTGAATTCCGGTCTCCC
DNA 2: TGGTGGCTACGACGGGATT
B23: CACGAGC (DNA:RNA)
RNA: B6 RNA with C26A, A27C, U28G, C30G, U31C
DNA 1: CAATCTGAATTCCGGTCTCCC
DNA 2: TGGTGGCTACGACGGGATT
B24: UGAGUAC (DNA:RNA)
RNA: B1 RNA with U26G, C27A, A28G, G30A, G31C
DNA 1: CAATCTGAATTCCGGTCTCCC
DNA 2: TGGTGGCTACGACGGGATT
B25: CGGCCGA (DNA:RNA)
RNA: B6 RNA with C26G, A27G, U28C, A29C, C30G, U31A
DNA 1: CAATCTGAATTCCGGTCTCCC
DNA 2: TGGTGGCTACGACGGGATT
B26: GUGGACU (DNA:RNA)
RNA: B6 RNA with C25G, C26U, A27G, U28G
DNA 1: CAATCTGAATTCCGGTCTCCC
DNA 2: TGGTGGCTACGACGGGATT
B27: ACUACCU (DNA:RNA)
RNA: B6 RNA with C25A, A27U, U28A, A29C
DNA 1: CAATCTGAATTCCGGTCTCCC
DNA 2: TGGTGGCTACGACGGGATT
B28: AUUUGGG (DNA:RNA)
RNA: B1 RNA with U25A, C27U, A28U, U29G
DNA 1: CAATCTGAATTCCGGTCTCCC
DNA 2: TGGTGGCTACGACGGGATT
B29: UAGCAAC (DNA:RNA)
RNA: B6 RNA with C25U, C26A, A27G, U28C, C30A, U31C
DNA 1: CAATCTGAATTCCGGTCTCCC
DNA 2: TGGTGGCTACGACGGGATT
B30: UGACGGC (DNA:RNA)
RNA: B1 RNA with U26G, C27A, A28C, U29G, G31C
DNA 1: CAATCTGAATTCCGGTCTCCC
DNA 2: TGGTGGCTACGACGGGATT
B31: GGACAUG (DNA:RNA)
RNA: B6 RNA with C25G, C26G, U28C, C30U, U31G
DNA 1: CAATCTGAATTCCGGTCTCCC
DNA 2: TGGTGGCTACGACGGGATT

The binders below were run against T1, RBFOX1 RRM (assay: EMSA; HiTS-Eq, 1 nM pool, 10 min; buffer printed only for the single-RNA assays: 10 mM Tris pH 7.5, 150 mM NaCl, 3.4 mM EDTA, 0.001% NP-40, 30 C). Conditions: tags: His6 N-terminal (pET28a); label: 5' 32P.
How it was run: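 Purified RbFox RRM, wild type or mutant, was incubated for 10 min in 50 µL with 1 nM of a 5′-radiolabelled RNA pool carrying 7 randomized nucleotides, whose flanks were annealed to DNA oligonucleotides, over a series of increasing protein concentrations. Unbound RNA was resolved on 8% native PAGE, cut out, reverse-transcribed, barcoded by PCR and sequenced on an Illumina HiSeq 2500. Relative association constants were derived from changes in read counts for each RNA species versus the control reaction and normalised to the cognate motif.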

Binder	binding signal
B1	0.00704 KA relative to UGCAUGU
B2	0.0155 KA relative to UGCAUGU
B3	0.0081 KA relative to UGCAUGU
B4	0.00945 KA relative to UGCAUGU
B5	0.0108 KA relative to UGCAUGU
B6	0.00208 KA relative to UGCAUGU
B7	0.00702 KA relative to UGCAUGU
B8	0.00447 KA relative to UGCAUGU
B9	0.0228 KA relative to UGCAUGU
B10	0.0007 KA relative to UGCAUGU
B11	0.000721 KA relative to UGCAUGU
B12	0.0116 KA relative to UGCAUGU
B13	0.00422 KA relative to UGCAUGU
B14	0.0233 KA relative to UGCAUGU
B15	0.00427 KA relative to UGCAUGU
B16	0.00889 KA relative to UGCAUGU

Binder	binding signal
B17	0.00327 KA relative to UGCAUGU
B18	0.0199 KA relative to UGCAUGU
B19	0.00779 KA relative to UGCAUGU
B20	0.0107 KA relative to UGCAUGU
B21	0.00316 KA relative to UGCAUGU
B22	0.0133 KA relative to UGCAUGU
B23	0.00712 KA relative to UGCAUGU
B24	0.0151 KA relative to UGCAUGU
B25	0.0175 KA relative to UGCAUGU
B26	0.0138 KA relative to UGCAUGU
B27	0.000318 KA relative to UGCAUGU
B28	0.00492 KA relative to UGCAUGU
B29	0.0121 KA relative to UGCAUGU
B30	0.0181 KA relative to UGCAUGU
B31	0.0229 KA relative to UGCAUGU
